Measurements: the supplement of paper PMC3334620
In all, about 33,000 sequences were measured (“E-score (-0.5 to 0.5)”: median about -0.036, highest 2% from about 0.37 on). The list shows a part of the results.

target: T1, Yer064c (UniProt P40041); assay: PBM E-score (8-mer binding enrichment) (E-score (-0.5 to 0.5)); higher = stronger / more preferred TF binding; most listed sequences are background and not binding sites; conditions: protein concentration: 200 nM; construct: GST-full length
T1 sequence: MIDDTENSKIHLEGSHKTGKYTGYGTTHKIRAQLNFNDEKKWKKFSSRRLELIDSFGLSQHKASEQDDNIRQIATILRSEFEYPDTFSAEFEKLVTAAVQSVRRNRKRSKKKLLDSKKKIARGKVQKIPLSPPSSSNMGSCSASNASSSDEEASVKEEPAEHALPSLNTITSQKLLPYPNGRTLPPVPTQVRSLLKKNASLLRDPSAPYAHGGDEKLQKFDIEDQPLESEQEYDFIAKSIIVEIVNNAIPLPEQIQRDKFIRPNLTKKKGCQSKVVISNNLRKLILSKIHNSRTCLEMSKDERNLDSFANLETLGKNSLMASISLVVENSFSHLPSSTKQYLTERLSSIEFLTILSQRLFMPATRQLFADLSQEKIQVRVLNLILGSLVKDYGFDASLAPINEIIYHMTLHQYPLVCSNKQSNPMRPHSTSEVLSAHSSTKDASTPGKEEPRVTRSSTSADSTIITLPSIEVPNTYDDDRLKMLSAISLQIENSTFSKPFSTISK
Summary of the method: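 Each ungapped eight-base word and its reverse complement, pooled, received an E-score from the Universal PBM Analysis Suite. Underlying scans, normalised with masliner, recorded fluorescent anti-GST bound to GST-tagged yeast transcription factors. These were applied at about 100-200 nM to universal all-10-mer Agilent arrays double-stranded by primer extension.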

| Sequence | PBM E-score |
| --- | --- |
| GTCGAATA | -0.165 |
| CCGTTACC | -0.0482 |
| CACAGCGA | 0.138 |
| GATATGAA | -0.0315 |
| AGACGGAG | 0.00172 |
| ATACGCTA | 0.00775 |
| ATCTTAGA | 0.0924 |
| ATTATGTA | 0.115 |
| ACCAGTCT | 0.0632 |
| CACTAATG | -0.127 |
| ACTTGAAC | 0.115 |
| ACTCCCCC | -0.045 |
| ACGTCTGG | -0.114 |
| GTGACGCA | 0.0072 |
| AAGTATAC | 0.00489 |
| CGTCTCTC | -0.0156 |
| ACCGGTTG | -0.196 |
| ACTCTTCA | 0.217 |
| AACTCTTG | -0.0938 |
| AACACGGC | -0.1 |
| AGTCTGGG | 0.0422 |
| ATAAGGCC | -0.255 |

| Sequence | PBM E-score |
| --- | --- |
| AGACAGAT | -0.0587 |
| AGCAATGC | -0.218 |
| AGATGGGA | -0.239 |
| AGTCGATA | 0.179 |
| TGTCATAA | 0.0821 |
| GCGACTCC | 0.39 |
| ATTCCTAA | 0.183 |
| CTCTGCAA | 0.019 |
| CGACGTTC | -0.184 |
| AAACGAAG | -0.0255 |
| GATCAAAA | 0.103 |
| GTGCGCCA | -0.227 |
| TGGCTAAA | 0.306 |
| GTAAAAAA | -0.0393 |
| ACTCCTCG | 0.19 |
| GAGCGATA | -0.249 |
| ACAGTGCG | -0.28 |
| GCGCACAA | -0.0609 |
| AAGAATAT | -0.0669 |
| CTAGTTGC | -0.0798 |
| AGTCGTTA | 0.361 |
| CGTCCCCC | -0.148 |

| Sequence | PBM E-score |
| --- | --- |
| ACGGTGTA | -0.0193 |
| ATAATCGG | 0.117 |
| GCGGAAAC | -0.252 |
| ATCTGATG | -0.0797 |
| ATACCATC | -0.0786 |
| CCTTGTTA | 0.0372 |
| GTATCTAA | 0.0316 |
| GGCAACAC | -0.17 |
| GAACATAC | -0.137 |
| ACAAAAAC | -0.0516 |
| TAACGAAA | 0.106 |
| AGGCAGTA | -0.0516 |
| TCCGTACA | 0.075 |
| GACTACAA | 0.402 |
| ACGAGCGA | -0.0924 |
| GAATGGCA | -0.0851 |
| CAGGAGGA | -0.175 |
| CGCAGATA | 0.101 |
| ATCTCGAC | 0.0974 |
| CTCGGTGC | -0.148 |
| AAATTTAC | 0.164 |
| GAAAAACC | -0.142 |

| Sequence | PBM E-score |
| --- | --- |
| CGCACTGC | -0.188 |
| CGTTTAAG | 0.112 |
| AAGCGGGG | 0.0204 |
| ACGCAGGG | 0.0603 |
| AACCATCG | 0.286 |
| AGCTCAGC | -0.214 |
| GGTACCGA | -0.0763 |
| CTCACGGC | -0.107 |
| ATTGTACC | -0.00593 |
| CACAGCTG | -0.0781 |
| TACGCCGA | -0.119 |
| GGCACTTA | -0.212 |
| AAATAGGG | -0.227 |
| AGTCTTAG | 0.408 |
| CAGTTAGG | -0.142 |
| ACCTTGAG | 0.145 |
| CAGAATGG | 0.0776 |
| ACCAGGGT | -0.137 |
| GAACAGTA | 0.0874 |
| GGGTAAAC | 0.0204 |
